Data taken from PubChem BioAssay AID1159614 (National Center for Advancing Translational Sciences (NCATS), 2016).
Among all 45,000 compounds or so, about 65 (0.1%) were called active. The call rests on the fitted dose curve; in most records, active means well fitted activation curve with a large enough effect; inconclusive means small, poorly fitted or top-dose-only effect; inactive means no such curve, though single readings can be large or run the other way. Some of the results follow.

Target: Galactocerebrosidase (Homo sapiens) (UniProt P54803)
Chain of UniProt P54803 (P54803 whole entry, looked up): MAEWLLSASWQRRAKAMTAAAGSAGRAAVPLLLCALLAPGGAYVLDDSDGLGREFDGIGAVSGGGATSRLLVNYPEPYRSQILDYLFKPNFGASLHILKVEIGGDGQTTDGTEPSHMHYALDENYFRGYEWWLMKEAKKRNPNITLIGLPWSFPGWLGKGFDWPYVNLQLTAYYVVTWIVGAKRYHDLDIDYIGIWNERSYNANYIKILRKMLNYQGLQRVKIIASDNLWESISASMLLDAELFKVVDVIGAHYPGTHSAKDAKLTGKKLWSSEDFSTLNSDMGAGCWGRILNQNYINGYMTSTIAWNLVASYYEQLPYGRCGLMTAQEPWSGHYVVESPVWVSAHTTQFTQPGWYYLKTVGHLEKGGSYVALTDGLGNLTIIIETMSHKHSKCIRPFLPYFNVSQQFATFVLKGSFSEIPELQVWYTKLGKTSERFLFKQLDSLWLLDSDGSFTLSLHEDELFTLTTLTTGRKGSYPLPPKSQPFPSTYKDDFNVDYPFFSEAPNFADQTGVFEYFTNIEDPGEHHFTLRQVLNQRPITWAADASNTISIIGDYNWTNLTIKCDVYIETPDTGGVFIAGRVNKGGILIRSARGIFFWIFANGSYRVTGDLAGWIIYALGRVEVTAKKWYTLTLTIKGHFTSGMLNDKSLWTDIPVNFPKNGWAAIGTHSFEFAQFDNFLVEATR
Assay: A Novel Cell-Based Assay to Identify Small Molecules for B -Galactocerebrosidase; further: 0% is about no effect; nearly all actives have a fitted effect of over 65% in size
Details: 145M-Twi-hGALC-G270D cells (Twitcher mouse brain line with human GALC G270D), HMU-beta-Gal fluorescence, 48 h; series mostly up to 57.5 µM; activation: at the top concentration
Method in brief: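 Live 145M-Twi cells (Twitcher mouse brain-derived, GALC-null) stably expressing human GALC-G270D, with a wild-type GALC line, were compound-treated. Residual GALC activity was then read as fluorescence from 0.1 mM final HMU-β-gal at pH 5.2; higher signal means activation.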

activation, inactive:
COc1ccc(Nc2cc(C(=O)NCc3ccccc3)c3ccccc3n2)cc1OC -0.572%, CCOc1ccc(C(=O)NCc2ccc3c(c2)CCN3C(=O)c2ccc(C)cc2)cc1OCC -7.42%, Cc1ccc2nc(SCC(=O)Nc3ccc(C#N)cc3)[nH]c2c1 -12.9%, Cc1ccn2c(Nc3ccc4c(c3)OCCO4)c(-c3ccc(C)s3)nc2c1 -10.4%, Cc1c(C(=O)N2CCC(C)CC2)c(S(=O)(=O)N2CCN(c3cccc(Cl)c3)CC2)c(C)n1C -6.79%, COc1ccc(OC)c(NC(=O)CCc2nc(-c3ccc(C)cc3)no2)c1 -2.24%, O=C(CSc1ccc2nc(-c3ccccc3)cn2n1)Nc1cccc(F)c1 -2.77%, C=CCNc1nc(NCC=C)nc(N2CCN(C(c3ccc(F)cc3)c3ccc(F)cc3)CC2)n1 -10.8%, COc1ccc(NC(=O)c2c(NC(=O)Cc3ccccc3)sc3c2CCCC3)cc1 -19.8%, Cc1cccc(NC(=O)CSc2nc3ccc(NC(=O)COc4ccccc4F)cc3s2)c1 1%, OCCN1CCN(CCCN2c3ccccc3C=Cc3ccccc32)CC1 -16.6%, Cc1ccc(NC(=O)C2CCCN2S(=O)(=O)c2ccc3c(c2)CCCC(=O)N3)cc1Cl (stereo not given) -8.5%, CCN(CC)CCCNC(=O)CN1N=C(c2ccccc2)CCC1=O 1.53%, Cc1cc(F)ccc1NC(=O)Cn1c(=O)ccc2cc(S(=O)(=O)N3CCC(C)CC3)ccc21 -8.68%, COc1ccc(Cn2nnc3c(=O)[nH]c(C4CCN(C(=O)c5ccc(C)cc5)CC4)nc32)cc1OC 10.6%, COc1ccc(NC(=O)Cn2c(=O)n(Cc3ccc(C(=O)NCc4ccccc4Cl)cc3)c(=O)c3ccccc32)cc1 4.38%, Cc1ccc(NC(=O)Cn2nnc(C(=O)NCc3cccs3)c2N)cc1Cl -7.37%, COc1ccc(CNC(=O)c2ccc(CNS(=O)(=O)c3ccc(F)cc3)cc2)cc1 6.77%, COC(=O)c1sccc1S(=O)(=O)N(CC(=O)NCc1ccc(F)cc1)c1ccc(Cl)cc1 -4.35%, Cc1nn(CC(=O)N2CCN(c3cccc(C(F)(F)F)c3)CC2)c(=O)c2cccn12 -6.4%, Cc1nn(C)c2c1c(C(F)(F)F)cc(=O)n2C(C)C(=O)NCc1ccccc1Cl (stereo not given) 15.6%, Cc1ccccc1NC(=O)CSc1nnc(-c2cccs2)o1 -9.51%, Nc1c(CC(=O)O)cccc1C(=O)c1ccc(Br)cc1 -13.1%, COc1ccccc1NC(=O)CSC1=Nc2ccccc2C2=NC(CC(=O)NCc3cccs3)C(=O)N12 (stereo not given) -9.89%, COc1ccc(CCNC(=O)c2ccc3c(c2)N(Cc2ccccc2C)C(=O)c2ccccc2S3)cc1OC -18%, Cc1cc(C)cc(NC(=O)Cn2c(C(F)(F)F)nc3ccccc32)c1 -4.38%, Cc1oc(-c2cccc(Cl)c2)nc1Cn1c(SCc2ccccc2F)nc2ccncc21 -17.8%, COc1ccc(-n2ncc(C(=O)N3CCOCC3)c2C2CCN(C(=O)OC(C)(C)C)CC2)cc1 -6.49%, CCCCS(=O)(=O)c1nc(-c2ccc(Br)cc2)cc(-c2ccccc2)c1C#N -25.6%, N#Cc1ccccc1NC(=O)CSc1nnc(N)s1 -2.13%, COc1ccc(CNC(=O)c2cnc(N3CCOCC3)c3ccccc23)cc1 -5.54%, COc1ccc(NC(=O)CSc2nc(-c3ccco3)cc(C(F)(F)F)n2)cc1Cl -19%, CCCN(CCC)C(=O)Cn1c(=O)n(-c2ccc(Cl)cc2)c(=O)c2c3c(sc21)CCCC3 0.947%, Fc1ccc(-c2cn3cc(Cc4ccccc4)sc3n2)cc1 -25.4%, CCc1ccc2oc(-c3cc(NC(=O)c4cc([N+](=O)[O-])ccc4N4CCOCC4)ccc3Cl)nc2c1 -11.2%, Cc1ccc(Cl)cc1N1CCN(C(=O)c2cc3c(-c4ccccc4F)nn(C)c3s2)CC1 -7.59%, CC1CCc2c(sc3nnn(CC(=O)Nc4ccc(Cl)cc4)c(=O)c23)C1 (stereo not given) -15.7%, Cc1ccc(N2CCN(S(=O)(=O)c3ccc4[nH]c5c(c4c3)CCCCC5)CC2)c(C)c1 -30.9%, CCN(C(=O)c1cn(CC)c(=O)c2cc(OC)c(OC)cc12)c1ccc(C)c(C)c1 4.92%, C[C@@H]1CC[C@@]2(OC1)O[C@H]1C[C@H]3[C@@H]4CC[C@H]5C[C@@H](O)CC[C@]5(C)[C@H]4CC(=O)[C@]3(C)[C@H]1[C@@H]2C -8.82% [at 5.77 µM], Cn1c(=O)c2sccc2n2c(CCCC(=O)NCc3ccccc3)nnc12 4.81%, O=C1COc2ccc(-c3cc(-c4ccccc4)c4c(n3)-c3cc(Cl)ccc3OC4)cc2N1 -3.69%, Cc1cccc(NC(=O)CCc2c(C)nc3c(c(C)nn3C(C)(C)C)c2C)c1C 3.61%, O=C(Nc1ccc(F)cc1)N1CCN(C(=O)c2nsc3ccccc23)CC1 -2.13%, COC(=O)c1cc2occc2n1CC(=O)Nc1ccc(C(C)C)cc1 -25.6%, COc1cccc(-n2nnc(-c3nc(-c4ccccc4F)no3)c2C)c1 -10.1%, CCSc1nn(CC(=O)Nc2ccc(C(=O)OC)cc2)c(N)c1S(=O)(=O)c1ccc(C)cc1 -3.82%, CSc1cccc(NC(=O)Cn2ncn3c(cc4ccccc43)c2=O)c1 -14%, COC(=O)c1cc(NC(=O)c2ccc3c(c2)NC(=O)c2ccccc2S3)cc(C(=O)OC)c1 -19.8%, COc1ccc(-c2nc3c(c(SCC(=O)N4CCCCC4)n2)Cc2c(CO)cnc(C)c2O3)cc1 -7.13%, O=C(Nc1cccc(F)c1F)C1CCN(c2ncccn2)CC1 -17.7%, Cn1nnc2c(N3CCN(c4cccc(C(F)(F)F)c4)CC3)ncnc21 -17%, Fc1ccccc1N1CCN(c2ncc3c(n2)CCN(Cc2cc(Br)cs2)C3)CC1 -17.3%, CCOc1ccccc1NC(=O)C(c1ccccc1)N1Cc2ccccc2C1=O (stereo not given) -0.0125%, COc1ccc(OC)c(CNC(=O)CN2CC(C)Sc3ccccc32)c1 (stereo not given) -32.8%, Cc1cccc(N2CCN(C(c3ccccc3)c3nnc(-c4ccccc4Cl)o3)CC2)c1C (stereo not given) -14%, COC(=O)c1ccccc1NC(=O)Cn1c(=O)n(-c2cccc(C(F)(F)F)c2)c(=O)c2c(C)c(C)sc21 2.21%, Cc1cccc2sc(N(CCCN(C)C)C(=O)COc3ccccc3)nc12 -14.1%, Cc1ccc(C)c(N2CCN(C(=O)c3cc(S(=O)(=O)N4CCCCCC4)cn3C)CC2)c1 -5.42%, COCCCNC(=O)c1ccc(Cn2c(SCc3cccc(C)c3)nc3cccnc32)cc1 -13.6%
